Laboratory results from the supplement of paper PMC9151546.
Most values come without repeats; read them as rough.

Columns and labels:
[1] = test system: CHO-K1; assay: hypodiploid nuclei frequency (% of nucleated events); higher = more hypodiploid events (aneugenic)
Experimental: (§1)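 Flow-cytometric in vitro micronucleus assay (Litron MicroFlow) in CHO-K1 cells in 96-well plates, 19 concentrations (4.5-200 µM, n=1 per concentration). Without S9, cells were exposed for 24 h and sampled at 48 h. With Aroclor 1254-induced rat liver S9, cells were exposed for 3-4 h and sampled at 27-28 h. Read-outs are %MN and %hypodiploid nuclei relative to nucleated events, and relative survival as the nuclei-to-bead ratio versus the 1% DMSO vehicle control (x100).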

[2] = test system: CHO-K1; assay: micronucleus frequency (% of nucleated events); higher = more micronuclei (genotoxic)
[3] = test system: CHO-K1; assay: relative survival (nuclei to bead ratio vs DMSO control) (% of vehicle control); higher = more surviving cells
Experimental: as §1
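For hypodiploid nuclei frequency (% of nucleated events) in this document: hypodiploid nuclei gated on a flow cytometer with 488 nm excitation after SYTOX Green staining, cultures at 37 °C, positive controls vinblastine without S9 and cyclophosphamide with S9.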
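For micronucleus frequency (% of nucleated events) in this document: cells lysed with nuclei stained by SYTOX Green, then micronucleus-gated events counted against nucleated events by flow cytometry with 488 nm excitation.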
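For relative survival (nuclei to bead ratio vs DMSO control) in this document: Lysed-cell nuclei stained with SYTOX Green and counted against counting beads by flow cytometry at 488 nm excitation, with vinblastine (no S9) and cyclophosphamide (plus S9) as positive controls.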

CCCCOC(=O)c1ccc(O)cc1 [Butylparaben]
Settings	hypodiploid nuclei frequency, [1] [%]	micronucleus frequency, [2] [%]	relative survival, [3]
concentration: 4.5 (µM), S9 metabolic activation: with S9, exposure time: 3-4 hours	0.2	1.3	61.7
concentration: 4.5 (µM), S9 metabolic activation: without S9, exposure time: 24 hours	0.6	1.42	89.9
concentration: 5.63 (µM), S9 metabolic activation: with S9, exposure time: 3-4 hours	0.14	1.18	71.2
concentration: 5.63 (µM), S9 metabolic activation: without S9, exposure time: 24 hours	0.7	1.12	102
concentration: 7.04 (µM), S9 metabolic activation: with S9, exposure time: 3-4 hours	0.16	1.02	59.1
concentration: 7.04 (µM), S9 metabolic activation: without S9, exposure time: 24 hours	0.66	1.3	76.5
concentration: 8.8 (µM), S9 metabolic activation: with S9, exposure time: 3-4 hours	0.2	1.48	80.8
concentration: 8.8 (µM), S9 metabolic activation: without S9, exposure time: 24 hours	0.6	1.48	65
concentration: 11 (µM), S9 metabolic activation: with S9, exposure time: 3-4 hours	0.12	1.42	74.4
concentration: 11 (µM), S9 metabolic activation: without S9, exposure time: 24 hours	0.68	1.1	96.8
concentration: 13.7 (µM), S9 metabolic activation: with S9, exposure time: 3-4 hours	0.26	1.36	86.4
concentration: 13.7 (µM), S9 metabolic activation: without S9, exposure time: 24 hours	1	1.06	81.1
concentration: 17.2 (µM), S9 metabolic activation: with S9, exposure time: 3-4 hours	0.2	1.06	83.5
concentration: 17.2 (µM), S9 metabolic activation: without S9, exposure time: 24 hours	0.96	1.22	75.3
concentration: 21.5 (µM), S9 metabolic activation: with S9, exposure time: 3-4 hours	0.28	1.12	80.2
concentration: 21.5 (µM), S9 metabolic activation: without S9, exposure time: 24 hours	0.92	1.42	68.8
concentration: 26.8 (µM), S9 metabolic activation: with S9, exposure time: 3-4 hours	0.24	1.22	56.9
concentration: 26.8 (µM), S9 metabolic activation: without S9, exposure time: 24 hours	0.86	1	92.2
concentration: 33.6 (µM), S9 metabolic activation: with S9, exposure time: 3-4 hours	0.28	0.88	57.1
concentration: 33.6 (µM), S9 metabolic activation: without S9, exposure time: 24 hours	0.82	1.1	81.1
concentration: 41.9 (µM), S9 metabolic activation: with S9, exposure time: 3-4 hours	0.22	1.4	55.3
concentration: 41.9 (µM), S9 metabolic activation: without S9, exposure time: 24 hours	0.76	1.14	85.7
concentration: 52.4 (µM), S9 metabolic activation: with S9, exposure time: 3-4 hours	0.18	0.9	53.6
concentration: 52.4 (µM), S9 metabolic activation: without S9, exposure time: 24 hours	0.7	1.46	86.3
concentration: 65.5 (µM), S9 metabolic activation: with S9, exposure time: 3-4 hours	0.2	1.62	60.7
concentration: 65.5 (µM), S9 metabolic activation: without S9, exposure time: 24 hours	0.8	1.5	72.8
concentration: 81.9 (µM), S9 metabolic activation: with S9, exposure time: 3-4 hours	0.2	1.17	45.9
concentration: 81.9 (µM), S9 metabolic activation: without S9, exposure time: 24 hours	0.82	1.36	68.3
concentration: 102 (µM), S9 metabolic activation: with S9, exposure time: 3-4 hours	0.34	1.58	51.4
concentration: 102 (µM), S9 metabolic activation: without S9, exposure time: 24 hours	0.92	1.32	61.5
concentration: 128 (µM), S9 metabolic activation: with S9, exposure time: 3-4 hours	0.3	1.5	60.3
concentration: 128 (µM), S9 metabolic activation: without S9, exposure time: 24 hours	0.76	1.6	64.5
concentration: 160 (µM), S9 metabolic activation: with S9, exposure time: 3-4 hours	0.26	1.74	62.9
concentration: 160 (µM), S9 metabolic activation: without S9, exposure time: 24 hours	0.7	1.56	55.8
concentration: 200 (µM), S9 metabolic activation: with S9, exposure time: 3-4 hours	0.44	2.66	51
concentration: 200 (µM), S9 metabolic activation: without S9, exposure time: 24 hours	0.84	1.48	55

Oc1ccc2ccccc2c1N=Nc1ccccc1 [C.I. Solvent Yellow 14]
Settings	hypodiploid nuclei frequency, [1] [%]	micronucleus frequency, [2] [%]	relative survival, [3]
concentration: 4.5 (µM), S9 metabolic activation: with S9, exposure time: 3-4 hours	0.3	1.34	110
concentration: 4.5 (µM), S9 metabolic activation: without S9, exposure time: 24 hours	1.66	1.98	112
concentration: 5.63 (µM), S9 metabolic activation: with S9, exposure time: 3-4 hours	0.2	1.96	111
concentration: 5.63 (µM), S9 metabolic activation: without S9, exposure time: 24 hours	2.36	2.28	113
concentration: 7.04 (µM), S9 metabolic activation: with S9, exposure time: 3-4 hours	0.36	1.58	101
concentration: 7.04 (µM), S9 metabolic activation: without S9, exposure time: 24 hours	3.26	2.38	122
concentration: 8.8 (µM), S9 metabolic activation: with S9, exposure time: 3-4 hours	0.36	1.78	113
concentration: 8.8 (µM), S9 metabolic activation: without S9, exposure time: 24 hours	1.88	1.78	121
concentration: 11 (µM), S9 metabolic activation: with S9, exposure time: 3-4 hours	0.26	1.52	99.7
concentration: 11 (µM), S9 metabolic activation: without S9, exposure time: 24 hours	2.1	1.82	111
concentration: 13.7 (µM), S9 metabolic activation: with S9, exposure time: 3-4 hours	0.26	1.98	109
concentration: 13.7 (µM), S9 metabolic activation: without S9, exposure time: 24 hours	1.7	2.14	107
concentration: 17.2 (µM), S9 metabolic activation: with S9, exposure time: 3-4 hours	0.28	2.48	101
concentration: 17.2 (µM), S9 metabolic activation: without S9, exposure time: 24 hours	3.52	2.28	96.5
concentration: 21.5 (µM), S9 metabolic activation: with S9, exposure time: 3-4 hours	0.24	3.04	103
concentration: 21.5 (µM), S9 metabolic activation: without S9, exposure time: 24 hours	4.66	1.7	112
concentration: 26.8 (µM), S9 metabolic activation: with S9, exposure time: 3-4 hours	0.32	2.8	121
concentration: 26.8 (µM), S9 metabolic activation: without S9, exposure time: 24 hours	–	3.76	47.3
concentration: 33.6 (µM), S9 metabolic activation: with S9, exposure time: 3-4 hours	0.3	2.54	99.2
concentration: 33.6 (µM), S9 metabolic activation: without S9, exposure time: 24 hours	–	4.52	44.6
concentration: 41.9 (µM), S9 metabolic activation: with S9, exposure time: 3-4 hours	0.62	3.14	103
concentration: 41.9 (µM), S9 metabolic activation: without S9, exposure time: 24 hours	–	–	30.2
concentration: 52.4 (µM), S9 metabolic activation: with S9, exposure time: 3-4 hours	0.26	2.68	92.4
concentration: 52.4 (µM), S9 metabolic activation: without S9, exposure time: 24 hours	–	–	29.3
concentration: 65.5 (µM), S9 metabolic activation: with S9, exposure time: 3-4 hours	0.2	1.78	115
concentration: 65.5 (µM), S9 metabolic activation: without S9, exposure time: 24 hours	–	–	35.1
concentration: 81.9 (µM), S9 metabolic activation: with S9, exposure time: 3-4 hours	0.4	2.86	94.4
concentration: 81.9 (µM), S9 metabolic activation: without S9, exposure time: 24 hours	–	–	37.9
concentration: 102 (µM), S9 metabolic activation: with S9, exposure time: 3-4 hours	0.84	2.2	74.6
concentration: 102 (µM), S9 metabolic activation: without S9, exposure time: 24 hours	–	–	33.9
concentration: 128 (µM), S9 metabolic activation: with S9, exposure time: 3-4 hours	0.6	2.3	85.9
concentration: 128 (µM), S9 metabolic activation: without S9, exposure time: 24 hours	–	–	25.2
concentration: 160 (µM), S9 metabolic activation: with S9, exposure time: 3-4 hours	2.66	2.38	75.9
concentration: 160 (µM), S9 metabolic activation: without S9, exposure time: 24 hours	–	–	29.3
concentration: 200 (µM), S9 metabolic activation: with S9, exposure time: 3-4 hours	3.9	2.28	77.3
concentration: 200 (µM), S9 metabolic activation: without S9, exposure time: 24 hours	–	–	24.2
